# Some of the results follow. Single values of this set are uncertain. Values with irradiation are relative to irradiated vehicle.
# Key:
# [1] = test system: A549-Dual; assay: NF-kB reporter (SEAP) activity, viability-corrected, relative to vehicle (fold change vs vehicle); higher = more activation of STING-IRF / NF-kB immune response reporter
# [2] = test system: A549-Dual; assay: ISRE reporter (Lucia luciferase) activity, viability-corrected, relative to vehicle (fold change vs vehicle); higher = more activation of STING-IRF / NF-kB immune response reporter
# 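Throughout, for NF-kB reporter (SEAP) activity, viability-corrected, relative to vehicle: viability correction based on the alamar blue assay, with concentrations leaving 10% survival or less dropped.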
SMILES,"NF-kB reporter ([1]; 0.1 µM, irradiation: 8 Gy/4 fr)","NF-kB reporter ([1]; 0.1 µM, irradiation: none)","NF-kB reporter ([1]; 0.3 µM, irradiation: 8 Gy/4 fr)","NF-kB reporter ([1]; 0.3 µM, irradiation: none)","NF-kB reporter ([1]; 1 µM, irradiation: 8 Gy/4 fr)","NF-kB reporter ([1]; 1 µM, irradiation: none)","NF-kB reporter ([1]; 3 µM, irradiation: 8 Gy/4 fr)","NF-kB reporter ([1]; 3 µM, irradiation: none)","NF-kB reporter ([1]; 10 µM, irradiation: 8 Gy/4 fr)","NF-kB reporter ([1]; 10 µM, irradiation: none)","ISRE reporter ([2]; 0.1 µM, irradiation: 8 Gy/4 fr)","ISRE reporter ([2]; 0.1 µM, irradiation: none)","ISRE reporter ([2]; 0.3 µM, irradiation: 8 Gy/4 fr)","ISRE reporter ([2]; 0.3 µM, irradiation: none)","ISRE reporter ([2]; 1 µM, irradiation: 8 Gy/4 fr)","ISRE reporter ([2]; 1 µM, irradiation: none)","ISRE reporter ([2]; 3 µM, irradiation: 8 Gy/4 fr)","ISRE reporter ([2]; 3 µM, irradiation: none)","ISRE reporter ([2]; 10 µM, irradiation: 8 Gy/4 fr)","ISRE reporter ([2]; 10 µM, irradiation: none)"
S=P(N1CC1)(N1CC1)N1CC1 [Thiotepa],0.814,1.18,0.881,1.17,0.729,0.879,0.774,0.957,0.826,1.03,0.829,1.07,1.06,1.24,0.727,1.13,0.618,1.8,0.642,1.94
CC1c2cccc(O)c2C(=O)C2=C(O)C3(O)C(=O)C(C(N)=O)=C(O)C(N(C)C)C3C(O)C21.O (stereo unspecified) [Doxycycline monohydrate],–,–,–,–,–,–,–,–,0.59,1.01,–,–,–,–,–,–,–,–,0.434,0.895
C[n+]1cc2c3c(ccc2c2ccc4cc5c(cc4c21)OCO5)OCO3 [Sanguinarine],1.07,1.36,1.03,1.17,1.23,0.997,0.97,1.57,–,–,0.866,0.971,0.885,0.815,0.879,0.834,0.809,1.27,–,–
CC/C(=C(\c1ccccc1)c1ccc(OCCN(C)C)cc1)c1ccccc1.O=C(O)CC(O)(CC(=O)O)C(=O)O [Tamoxifen],0.892,0.878,0.93,0.965,0.864,0.891,0.95,0.806,0.921,0.954,0.951,0.799,1.1,0.951,0.916,0.736,1.01,0.819,1,1.14
Cn1cncc1C(N)(c1ccc(Cl)cc1)c1ccc2c(c1)c(-c1cccc(Cl)c1)cc(=O)n2C (stereo unspecified) [Tipifarnib],–,–,–,–,–,–,–,–,0.97,1.37,–,–,–,–,–,–,–,–,0.653,1.82
COc1cccc2c1C(=O)c1c(O)c3c(c(O)c1C2=O)CC(O)(C(C)=O)CC3OC1CC(N)C(O)C(C)O1.Cl (stereo unspecified) [Daunorubicin HCl],0.973,1.71,1.21,2.48,1.63,3.36,6.63,–,5.51,–,0.643,6.11,0.957,5.64,1.04,7.99,0.674,–,0.842,–
COC1C(=O)C2(C)C(OC)CC3OCC3(OC(C)=O)C2C(OC(=O)c2ccccc2)C2(O)CC(OC(=O)C(O)C(NC(=O)OC(C)(C)C)c3ccccc3)C(C)=C1C2(C)C (stereo unspecified) [Cabazitaxel],–,–,–,–,–,–,–,–,1.9,3.75,–,–,–,–,–,–,–,–,1.26,5.08
COc1cccc2c1C(=O)c1c(O)c3c(c(O)c1C2=O)CC(O)(C(=O)CO)CC3OC1CC(N)C(O)C(C)O1.Cl (stereo unspecified) [Epirubicin HCl],0.81,1.69,1.32,2.46,1.64,7.45,–,7.26,4.16,1.47,0.446,3.39,0.965,5.82,0.907,4.02,–,2.04,0.567,0.758
COc1cccc2c1C(=O)c1c(O)c3c(c(O)c1C2=O)CC(O)(C(=O)CO)CC3OC1CC(N)C(OC2CCCCO2)C(C)O1 (stereo unspecified) [Pirarubicin],0.935,1.42,0.954,1.52,0.917,1.84,–,11.8,–,3.84,0.565,2.6,0.668,2.79,0.598,4.01,–,2.8,–,1.29
O=C(O)/C=C/C(=O)O.OCCOCCN1CCN(C2=Nc3ccccc3Sc3ccccc32)CC1.OCCOCCN1CCN(C2=Nc3ccccc3Sc3ccccc32)CC1 [Quetiapine Fumarate],–,–,–,–,–,–,–,–,1,0.805,–,–,–,–,–,–,–,–,1.36,1.19
"CC1CCC(C(C)C)C(O)C1 (single isomer, unassigned; (-)) [(-)-Menthol]",–,–,–,–,–,–,–,–,0.86,1.35,–,–,–,–,–,–,–,–,0.954,0.762
CC(N)(Cc1ccc(O)c(O)c1)C(=O)O (stereo unspecified) [Methyldopa],–,–,–,–,–,–,–,–,1,1.35,–,–,–,–,–,–,–,–,0.841,0.761
OCC1OC(OCC2OC(O)C(O)C(OC3OC(CO)C(O)C(OC4OC(CO)C(O)C(OC5OC(COC6OC(CO)C(O)C(O)C6O)C(O)C(OC6OC(CO)C(O)C(O)C6O)C5O)C4O)C3O)C2O)C(O)C(O)C1O (stereo unspecified) [Lentinan],1.24,2.33,1.32,1.96,1.79,1.34,2.15,1.36,1.72,0.537,1.17,2,1.16,1.5,1.47,1.21,1.19,1.17,1.55,0.906
CCC1(O)C(=O)OCc2c1cc1n(c2=O)Cc2cc3c(CN(C)C)c(O)ccc3nc2-1 (stereo unspecified) [Topotecan],1.17,1.63,1.36,2.79,1.48,3.85,–,4.2,2.71,3.31,1.3,7.28,1.9,8,1.49,10.8,–,11.1,1.55,9.6
C/C=C(/C)C(=O)OC1C(OC(C)=O)C2(CO)C(O)CC3(C)C(=CCC4C5(C)CCC(OC6OC(C(=O)O)C(OC7OC(CO)C(O)C(O)C7O)C(O)C6OC6OC(CO)C(O)C(O)C6O)C(C)(CO)C5CCC43C)C2CC1(C)C (stereo unspecified) [Escin],1.05,1.15,1.13,0.775,1.17,0.984,1.13,0.818,–,–,1.1,0.846,0.964,0.732,0.707,0.664,0.79,0.916,–,–
CCC1(O)C(=O)OCc2c1cc1n(c2=O)Cc2cc3cc(O)ccc3nc2-1 [(S)-10-Hydroxycamptothecin],1.26,3.12,1.43,6.73,3.62,6.58,–,–,–,–,1.4,10.5,2.07,19.2,2.4,16.6,–,–,–,–
O.O=c1c(O)c(-c2ccc(O)cc2O)oc2cc(O)cc(O)c12 [Morin Hydrate],–,–,–,–,–,–,–,–,0.709,0.646,–,–,–,–,–,–,–,–,0.55,0.423
CC1(C)OC2CC3C4CCC5=CC(=O)CCC5(C)C4(F)C(O)CC3(C)C2(C(=O)CCl)O1 (stereo unspecified) [Halcinonide],0.827,1.58,0.921,1.58,1.63,0.84,1.37,0.946,0.909,1.27,0.0669,0.439,0.0759,0.394,0.0693,0.232,0.0597,0.307,0.0692,0.245
CCCCCCCCCC(=O)NC(Cc1c[nH]c2ccccc12)C(=O)NC(CC(N)=O)C(=O)NC(CC(=O)O)C(=O)NC1C(=O)NCC(=O)NC(CCCN)C(=O)NC(CC(=O)O)C(=O)NC(C)C(=O)NC(CC(=O)O)C(=O)NCC(=O)NC(CO)C(=O)NC(C(C)CC(=O)O)C(=O)NC(CC(=O)c2ccccc2N)C(=O)OC1C (stereo unspecified) [Daptomycin],–,–,–,–,–,–,–,–,0.837,0.956,–,–,–,–,–,–,–,–,0.863,0.842
CC(C)[N+](C)(CCOC(=O)C1c2ccccc2Oc2ccccc21)C(C)C.[Br-] [Propantheline bromide],–,–,–,–,–,–,–,–,0.717,0.998,–,–,–,–,–,–,–,–,0.725,0.603
C=C1CCN(C(C)C(O)(Cn2cncn2)c2ccc(F)cc2F)CC1 (stereo unspecified) [Efinaconazole],–,–,–,–,–,–,–,–,0.729,0.849,–,–,–,–,–,–,–,–,0.541,0.751
COC(=O)NC(C(=O)N1CCCC1C(=O)Nc1ccc(C2CCC(c3ccc(NC(=O)C4CCCN4C(=O)C(NC(=O)OC)C(C)C)cc3)N2c2ccc(C(C)(C)C)cc2)cc1)C(C)C (stereo unspecified) [Ombitasvir (ABT-267)],–,–,–,–,–,–,–,–,1.06,0.965,–,–,–,–,–,–,–,–,1.08,1.33
